From article PMC5095516 come the findings set out here.

Chains of the proteins cited; added tags and fusions are not shown.
UniProt P61809: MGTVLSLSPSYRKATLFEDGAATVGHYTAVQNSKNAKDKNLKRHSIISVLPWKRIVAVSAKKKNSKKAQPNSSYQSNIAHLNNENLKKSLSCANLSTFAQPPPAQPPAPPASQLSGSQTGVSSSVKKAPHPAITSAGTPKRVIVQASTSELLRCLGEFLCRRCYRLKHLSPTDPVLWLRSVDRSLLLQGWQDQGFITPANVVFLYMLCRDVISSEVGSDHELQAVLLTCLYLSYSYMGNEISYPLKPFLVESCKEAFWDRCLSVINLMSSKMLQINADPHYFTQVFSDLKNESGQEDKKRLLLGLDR
UniProt Q60610: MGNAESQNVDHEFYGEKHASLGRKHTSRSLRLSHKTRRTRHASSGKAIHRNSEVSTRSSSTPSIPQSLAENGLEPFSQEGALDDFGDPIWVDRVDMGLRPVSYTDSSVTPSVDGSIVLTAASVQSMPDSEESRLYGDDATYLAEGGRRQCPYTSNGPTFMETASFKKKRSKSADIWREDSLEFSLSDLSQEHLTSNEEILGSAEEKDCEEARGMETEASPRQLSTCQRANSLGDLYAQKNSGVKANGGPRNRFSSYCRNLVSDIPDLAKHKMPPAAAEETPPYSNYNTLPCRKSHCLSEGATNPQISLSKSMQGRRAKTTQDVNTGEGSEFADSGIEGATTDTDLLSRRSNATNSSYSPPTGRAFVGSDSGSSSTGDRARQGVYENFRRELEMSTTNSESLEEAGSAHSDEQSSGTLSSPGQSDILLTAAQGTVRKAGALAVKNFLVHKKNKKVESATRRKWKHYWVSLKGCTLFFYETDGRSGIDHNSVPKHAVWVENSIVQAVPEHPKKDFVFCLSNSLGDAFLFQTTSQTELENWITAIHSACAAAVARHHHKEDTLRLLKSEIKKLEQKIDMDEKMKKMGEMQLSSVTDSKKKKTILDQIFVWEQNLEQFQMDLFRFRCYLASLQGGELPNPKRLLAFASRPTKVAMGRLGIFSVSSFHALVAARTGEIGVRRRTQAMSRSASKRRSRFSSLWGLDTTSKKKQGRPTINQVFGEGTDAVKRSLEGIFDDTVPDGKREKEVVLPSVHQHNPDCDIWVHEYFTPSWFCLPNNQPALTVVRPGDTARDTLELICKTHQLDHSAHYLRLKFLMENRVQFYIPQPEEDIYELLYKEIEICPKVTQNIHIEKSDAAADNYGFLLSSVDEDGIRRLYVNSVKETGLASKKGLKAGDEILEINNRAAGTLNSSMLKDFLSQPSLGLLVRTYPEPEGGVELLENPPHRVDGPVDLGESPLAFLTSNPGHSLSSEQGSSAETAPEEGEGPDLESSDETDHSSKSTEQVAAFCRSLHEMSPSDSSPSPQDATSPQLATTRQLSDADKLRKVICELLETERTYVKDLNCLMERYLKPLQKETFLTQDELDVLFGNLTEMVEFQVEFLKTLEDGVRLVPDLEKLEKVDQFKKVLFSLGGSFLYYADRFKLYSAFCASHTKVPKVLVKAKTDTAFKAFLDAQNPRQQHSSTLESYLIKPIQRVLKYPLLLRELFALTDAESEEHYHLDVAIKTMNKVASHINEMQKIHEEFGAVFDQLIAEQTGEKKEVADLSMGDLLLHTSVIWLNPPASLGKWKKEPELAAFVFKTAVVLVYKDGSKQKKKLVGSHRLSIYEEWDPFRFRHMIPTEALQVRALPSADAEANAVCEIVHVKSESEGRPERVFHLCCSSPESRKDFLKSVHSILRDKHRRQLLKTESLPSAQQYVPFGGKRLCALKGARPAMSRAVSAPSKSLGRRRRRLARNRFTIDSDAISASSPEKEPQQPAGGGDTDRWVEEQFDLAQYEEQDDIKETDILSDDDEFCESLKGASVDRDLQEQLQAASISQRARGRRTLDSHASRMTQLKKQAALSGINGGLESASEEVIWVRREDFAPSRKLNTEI
UniProt P61586: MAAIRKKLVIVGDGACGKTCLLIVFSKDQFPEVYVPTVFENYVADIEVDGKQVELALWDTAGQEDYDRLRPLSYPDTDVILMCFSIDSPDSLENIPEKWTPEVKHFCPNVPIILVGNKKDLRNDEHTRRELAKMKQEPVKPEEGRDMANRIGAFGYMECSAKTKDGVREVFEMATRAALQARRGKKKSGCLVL

The target in assay [1] is T1, FLAG-tagged CaMKv (calmodulin kinase-like vesicle-associated) (mouse) (UniProt Q3UHL1).
T1 sequence: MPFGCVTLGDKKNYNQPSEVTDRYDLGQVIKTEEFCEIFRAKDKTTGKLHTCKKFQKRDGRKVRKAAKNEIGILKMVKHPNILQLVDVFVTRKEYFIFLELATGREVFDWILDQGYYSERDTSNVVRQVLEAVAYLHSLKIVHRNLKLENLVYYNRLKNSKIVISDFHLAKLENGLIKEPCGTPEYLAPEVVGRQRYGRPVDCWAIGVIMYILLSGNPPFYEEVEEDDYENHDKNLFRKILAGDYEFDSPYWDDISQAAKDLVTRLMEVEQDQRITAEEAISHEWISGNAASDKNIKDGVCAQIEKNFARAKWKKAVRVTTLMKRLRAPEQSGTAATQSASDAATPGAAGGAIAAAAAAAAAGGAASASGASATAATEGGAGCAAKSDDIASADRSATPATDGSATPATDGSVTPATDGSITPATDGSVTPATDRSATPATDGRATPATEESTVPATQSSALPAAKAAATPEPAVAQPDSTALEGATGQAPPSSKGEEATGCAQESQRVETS
The experiment in a line: pull-down; FLAG-tagged CaMKv as bait; proteins pulled down from the synaptosome, detected by western blot. In general terms: Immunoblotting shows a protein as a band on a membrane.

The target in assay [2] is T2, FLAG-tagged Lfc (UniProt Q60875).
T2 sequence: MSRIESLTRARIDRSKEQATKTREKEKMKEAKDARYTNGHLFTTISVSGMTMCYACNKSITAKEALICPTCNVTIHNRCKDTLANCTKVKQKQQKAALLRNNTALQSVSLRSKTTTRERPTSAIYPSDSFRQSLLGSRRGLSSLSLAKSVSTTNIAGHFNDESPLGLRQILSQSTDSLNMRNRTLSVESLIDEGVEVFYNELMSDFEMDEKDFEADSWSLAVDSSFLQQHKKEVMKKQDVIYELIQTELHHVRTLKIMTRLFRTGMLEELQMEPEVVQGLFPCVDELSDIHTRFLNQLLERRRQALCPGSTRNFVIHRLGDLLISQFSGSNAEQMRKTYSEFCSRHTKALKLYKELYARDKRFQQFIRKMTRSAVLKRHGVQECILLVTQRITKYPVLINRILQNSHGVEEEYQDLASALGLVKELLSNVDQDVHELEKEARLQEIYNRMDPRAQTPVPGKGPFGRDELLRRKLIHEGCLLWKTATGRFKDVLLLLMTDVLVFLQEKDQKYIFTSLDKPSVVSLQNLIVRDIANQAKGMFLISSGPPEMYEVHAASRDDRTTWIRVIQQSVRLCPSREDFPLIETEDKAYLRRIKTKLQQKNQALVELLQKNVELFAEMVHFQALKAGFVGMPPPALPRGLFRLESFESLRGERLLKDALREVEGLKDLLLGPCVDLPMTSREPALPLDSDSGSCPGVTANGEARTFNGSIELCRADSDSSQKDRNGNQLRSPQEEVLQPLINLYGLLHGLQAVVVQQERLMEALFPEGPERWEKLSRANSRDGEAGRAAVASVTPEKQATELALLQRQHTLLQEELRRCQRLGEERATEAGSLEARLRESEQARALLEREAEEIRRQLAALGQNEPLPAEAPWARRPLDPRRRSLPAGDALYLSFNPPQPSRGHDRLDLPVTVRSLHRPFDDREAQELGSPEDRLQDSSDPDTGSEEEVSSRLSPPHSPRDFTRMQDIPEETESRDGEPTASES
The experiment in a line: co-IP; FLAG-tagged Lfc and HA-tagged RhoA co-expressed in HEK293T cells; lysate in buffer A; western blot.

Assay [3] addresses T1, FLAG-tagged CaMKv (calmodulin kinase-like vesicle-associated) (mouse). The experiment in a line: pull-down; FLAG-tagged CaMKv as bait; proteins pulled down from the synaptosome, detected by western blot. This is another data set of the same source.
In assay [4] the target is cyclin-dependent kinase 5 (Cdk5), endogenous (mouse (endogenous in brain)) (UniProt P49615). The experiment in a line: co-IP; endogenous proteins from mouse brain lysates; western blot.
For assay [5], the target named is p35, activator of Cdk5, endogenous (mouse (endogenous in brain)) (UniProt P61809). Described as above.
Assay [6] deals with T3, Lfc (GEF-H1), endogenous (mouse (endogenous in brain)) (UniProt Q60875).
T3 sequence: T2 sequence
The experiment in a line: co-IP; endogenous proteins in brain homogenate and synaptosome fractions; Lfc antibody (2 ug, GTX125893), protein G-Sepharose, buffer A (20 mM Tris pH 8.5, 50 mM NaCl, 1 mM EDTA, 1 mM NaF, 0.5% Nonidet P-40), 4 C; IgG as negative control.

Read-outs that look alike come from different tables or passages of the source. No constants are given. Whether binding was seen depends on the method and setting. Binding seen in cells or lysates may run through a third protein. Some entries that bind do so weakly or less than the wild type. For some of these results: Sequences can lack the tags named with a protein.

“TIAM1, endogenous (from UniProt Q60610 1-1591)”: in assay [1], the binding entry is reported as “no binding”.

For “HA-tagged RhoA (from UniProt P61586 1-193)”, in assay [2], the binding entry is reported as “binds”.

B1: Ephexin1, endogenous (protein, UniProt Q8CHT1 1-710)
chain: METKNSEDWGKPQRKSESSSRKSNHGPAEMRPALPPENREAPETGEETQNEEPRRLIPIQRHSLFNRAVRHRHKARSTSERRASDQADLPKMGKSVNERSAFNLPQGRLSPWRTPAQRDTGAQEASESSSTPGNGTTPEECPALTDSPTTLTEALQMIHPIPADSWRNLIEQIGLLYQEYRDKSTLQEIETRRQQDAEIQGNSDGSQVGEDAGEEEEEEEEGEEEELASPPERRALPQICLLSNPHSRFNLWQDLPEIQSSGVLDILQPEEIRLQEAMFELVTSEASYYKSLNLLVSHFMENERLKKILHPSEAHILFSNVLDVMAVSERFLLELEHRMEENIVISDVCDIVYRYAADHFSVYITYVSNQTYQERTYKQLLQEKAAFRELIAQLELDPKCKGLPFSSFLILPFQRITRLKLLVQNILKRVEERSEREGTALDAHKELEMVVKACNEGVRKMSRTEQMISIQKKMEFKIKSVPIISHSRWLLKQGELQQMSGPKTSRTLRTKKLFREIYLFLFNDLLVICRQIPGDKYQVFDSAPRGLLRVEELEDQGQTLANVFILRLLENADDREATYMLKASSQSEMKRWMTSLAPNRRTKFVSFTSRLLDCPQVQCVHPYVAQQPDELTLELADILNILEKTEDGWIFGERLHDQERGWFPSSMTEEILNPKIRSQNLKECFRVHKMEDPQRSQNKDRRKLGSRNRQ
In the case of B1, the binding result in assay [3] was “no binding”.

B2: CaMKv, endogenous (protein, UniProt Q3UHL1 1-512)
chain: T1 sequence
B2: the binding result in assay [4], in assay [5] and in assay [6] was “binds” in each case.

B3: Lfc (GEF-H1), endogenous (protein, UniProt Q60875 1-985)
chain: T2 sequence
On to B3, for which the binding result in assay [3] is “binds”.
